# From the supplement of paper PMC8728848
# Some of the results follow.
# B1: LcH (Lens culinaris), P02870 (protein)
# chain: TETTSFSITKFSPDQQNLIFQGDGYTGKEGLTLTKVSKETGGRALYSTPIHIWDRDTVNVANFVTNGSQVFRESPNGYNVADGFTFFIAPVDTKPQTGGGYLGVFYNGKEYDKTSQTVAVEFDTFYNAAWDPSNKERHIGIDVNSIKSVNTKSWNLQNGVTSYTLNEVVPLKDVVPEWVRIGFSATTGAEFAAQEVHSWSFNSQLGHTSKS
# Experiments:
# Test in all cases: glycan array binding signal (z-score within array); higher = stronger binding
# Details in all cases: glycan notation: IUPAC condensed, linker removed
# Gal(b1-3)Gal = biological target: Gal(b1-3)Gal
# Outline: (§1)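 From the Consortium for Functional Glycomics database, 3228 arrays were curated, keeping only those whose protein sequence was available. Binding is given as a within-array Z-score averaged across arrays sharing a protein sequence and across linkers. Negative Z-scores can be read as non-binding.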
# Gal(b1-3)Gal(b1-4)GlcNAc = biological target: Gal(b1-3)Gal(b1-4)GlcNAc
# Outline: as §1
# [1] = biological target: Gal(b1-3)Gal(b1-4)GlcNAc(b1-2)Man(a1-3)[Gal(b1-3)Gal(b1-4)GlcNAc(b1-2)Man(a1-6)]Man(b1-4)GlcNAc(b1-4)GlcNAc
# Outline: as §1
# Gal(b1-3)GalNAc = biological target: Gal(b1-3)GalNAc
# Outline: as §1
# [2] = biological target: Gal(b1-3)GalNAc(a1-3)[Fuc(a1-2)]Gal(b1-4)Glc
# Outline: as §1
# [3] = biological target: Gal(b1-3)GalNAc(a1-3)[Fuc(a1-2)]Gal(b1-4)GlcNAc
# Outline: as §1
# [4] = biological target: Gal(b1-3)GalNAc(b1-3)Gal(a1-4)Gal(b1-4)Glc
# Outline: as §1
# [5] = biological target: Gal(b1-3)GalNAc(b1-4)Gal(b1-4)Glc
# Outline: as §1
# [6] = biological target: Gal(b1-3)GalNAc(b1-4)[Neu5Ac(a2-3)]Gal(b1-4)Glc
# Outline: as §1
# Gal(b1-3)GlcNAc = biological target: Gal(b1-3)GlcNAc
# Outline: as §1
# [7] = biological target: Gal(b1-3)GlcNAc(b1-2)Man(a1-3)[Gal(b1-3)GlcNAc(b1-2)Man(a1-6)]Man(b1-4)GlcNAc(b1-4)GlcNAc
# Outline: as §1
# [8] = biological target: Gal(b1-3)GlcNAc(b1-2)Man(a1-3)[Gal(b1-3)GlcNAc(b1-2)Man(a1-6)]Man(b1-4)GlcNAc(b1-4)[Fuc(a1-6)]GlcNAc
# Outline: as §1
# [9] = biological target: Gal(b1-3)GlcNAc(b1-3)Gal(b1-3)GlcNAc
# Outline: as §1
# [10] = biological target: Gal(b1-3)GlcNAc(b1-3)Gal(b1-4)Glc
# Outline: as §1
# [11] = biological target: Gal(b1-3)GlcNAc(b1-3)Gal(b1-4)GlcNAc
# Outline: as §1
# [12] = biological target: Gal(b1-3)[Fuc(a1-4)]GlcNAc
# Outline: as §1
# [13] = biological target: Gal(b1-3)[Fuc(a1-4)]GlcNAc(b1-2)Man(a1-3)[Gal(b1-3)[Fuc(a1-4)]GlcNAc(b1-2)Man(a1-6)]Man(b1-4)GlcNAc(b1-4)GlcNAc
# Outline: as §1
# [14] = biological target: Gal(b1-3)[Fuc(a1-4)]GlcNAc(b1-2)Man(a1-3)[Gal(b1-3)[Fuc(a1-4)]GlcNAc(b1-2)Man(a1-6)]Man(b1-4)GlcNAc(b1-4)[Fuc(a1-6)]GlcNAc
# Outline: as §1
# [15] = biological target: Gal(b1-3)[Fuc(a1-4)]GlcNAc(b1-3)Gal(b1-3)[Fuc(a1-4)]GlcNAc
# Outline: as §1
# [16] = biological target: Gal(b1-3)[Fuc(a1-4)]GlcNAc(b1-3)Gal(b1-4)GlcNAc
# Outline: as §1
# [17] = biological target: Gal(b1-3)[Fuc(a1-4)]GlcNAc(b1-3)Gal(b1-4)[Fuc(a1-3)]GlcNAc
# Outline: as §1
# [18] = biological target: Gal(b1-3)[GlcNAc(b1-6)]GalNAc
# Outline: as §1
# [19] = biological target: Gal(b1-3)[Neu5Ac(a2-6)]GalNAc
# Outline: as §1
# [20] = biological target: Gal(b1-3)[Neu5Ac(a2-6)]GlcNAc(b1-6)Gal(b1-4)Glc
# Outline: as §1
# [21] = biological target: Gal(b1-3)[Neu5Ac(b2-6)]GalNAc
# Outline: as §1
# [22] = biological target: Gal(b1-4)GalNAc(a1-3)[Fuc(a1-2)]Gal(b1-4)GlcNAc
# Outline: as §1
# [23] = biological target: Gal(b1-4)GalNAc(b1-3)[Fuc(a1-2)]Gal(b1-4)GlcNAc
# Outline: as §1
# Gal(b1-4)Glc = biological target: Gal(b1-4)Glc
# Outline: as §1
# Gal(b1-4)Glc6S = biological target: Gal(b1-4)Glc6S
# Outline: as §1
# Gal(b1-4)GlcNAc = biological target: Gal(b1-4)GlcNAc
# Outline: as §1
# [24] = biological target: Gal(b1-4)GlcNAc(a1-6)Gal(b1-4)GlcNAc
# Outline: as §1
# [25] = biological target: Gal(b1-4)GlcNAc(b1-2)Man(a1-3)Man(b1-4)GlcNAc(b1-4)GlcNAc
# Outline: as §1
# [26] = biological target: Gal(b1-4)GlcNAc(b1-2)Man(a1-3)[Gal(b1-4)GlcNAc(b1-2)Man(a1-6)]Man(b1-4)GlcNAc(b1-4)GlcNAc
# Outline: as §1
# [27] = biological target: Gal(b1-4)GlcNAc(b1-2)Man(a1-3)[Gal(b1-4)GlcNAc(b1-2)Man(a1-6)]Man(b1-4)GlcNAc(b1-4)[Fuc(a1-6)]GlcNAc
# Outline: as §1
# [28] = biological target: Gal(b1-4)GlcNAc(b1-2)Man(a1-3)[Man(a1-6)]Man(b1-4)GlcNAc(b1-4)GlcNAc
# Outline: as §1
# [29] = biological target: Gal(b1-4)GlcNAc(b1-2)Man(a1-6)Man(b1-4)GlcNAc(b1-4)GlcNAc
# Outline: as §1
# [30] = biological target: Gal(b1-4)GlcNAc(b1-2)Man(a1-6)[Man(a1-3)]Man(b1-4)GlcNAc(b1-4)GlcNAc
# Outline: as §1
binder,measurement,setting,value
B1,glycan array binding signal (z-score),Gal(b1-3)Gal,-0.122
same,glycan array binding signal (z-score),Gal(b1-3)Gal(b1-4)GlcNAc,-0.128
same,glycan array binding signal (z-score),[1],-0.101
same,glycan array binding signal (z-score),Gal(b1-3)GalNAc,-0.108
same,glycan array binding signal (z-score),[2],-0.147
same,glycan array binding signal (z-score),[3],-0.093
same,glycan array binding signal (z-score),[4],-0.118
same,glycan array binding signal (z-score),[5],-0.114
same,glycan array binding signal (z-score),[6],-0.105
same,glycan array binding signal (z-score),Gal(b1-3)GlcNAc,-0.133
same,glycan array binding signal (z-score),[7],-0.127
same,glycan array binding signal (z-score),[8],14.3
same,glycan array binding signal (z-score),[9],-0.142
same,glycan array binding signal (z-score),[10],-0.096
same,glycan array binding signal (z-score),[11],-0.138
same,glycan array binding signal (z-score),[12],-0.114
same,glycan array binding signal (z-score),[13],0.003
same,glycan array binding signal (z-score),[14],-0.076
same,glycan array binding signal (z-score),[15],-0.125
same,glycan array binding signal (z-score),[16],-0.152
same,glycan array binding signal (z-score),[17],-0.123
same,glycan array binding signal (z-score),[18],-0.118
same,glycan array binding signal (z-score),[19],-0.095
same,glycan array binding signal (z-score),[20],-0.094
same,glycan array binding signal (z-score),[21],-0.115
same,glycan array binding signal (z-score),[22],-0.102
same,glycan array binding signal (z-score),[23],-0.109
same,glycan array binding signal (z-score),Gal(b1-4)Glc,-0.131
same,glycan array binding signal (z-score),Gal(b1-4)Glc6S,-0.101
same,glycan array binding signal (z-score),Gal(b1-4)GlcNAc,-0.11
same,glycan array binding signal (z-score),[24],-0.145
same,glycan array binding signal (z-score),[25],-0.098
same,glycan array binding signal (z-score),[26],-0.093
same,glycan array binding signal (z-score),[27],9.53
same,glycan array binding signal (z-score),[28],-0.099
same,glycan array binding signal (z-score),[29],-0.105
same,glycan array binding signal (z-score),[30],-0.132
